From the supplement of paper PMC12217912
The list shows a part of the results. Sequences were assembled here from the parent chain. Values near 0.05 are background.

B1: TEV protease; numbered along this chain (parent)
chain: MGESLFKGPRDYNPISSSICHLTNESDGHTTSLYGIGFGPFIITNKHLFRRNNGTLVVQSLHGVFKVKDTTTLQQHLVDGRDMIIIRMPKDFPPFPQKLKFREPQREERICLVTTNFQTKSMSSMVSDTSCTFPSGDGIFWKHWIQTKDGQCGSPLVSTRDGFIVGIHSASNFTNTNNYFTSVPKNFMELLTNQEAQQWVSGWRLNADSVLWGGHKVFMVKPEEPFQPVKEATQL

Variants of: B1
Test: raw area under fraction-flipped curve 0-4 h after induction (AUC4h, not background-subtracted), DNA-recorder readout of cleavage of the substrate (dimensionless); higher = more cleavage of the substrate by the protease variant
Details: temperature: 34 °C; time window: 0-4 h after rhamnose induction
Method: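 In vivo DNA recorder in E. coli TOP10(DE3) ΔrhaA at 34 °C. Each TEVp single-site mutant (parent TEVp 0) is paired with a single-site variant of the 7-mer TEVs (canonical ENLYFQ|S). The substrate sits between flexible linkers in a Bxb1-sfGFP-TEVs-SsrA fusion, so cleavage stabilises Bxb1 and speeds flipping of a recombination array, read by NGS. The value is the raw area under the fraction-flipped curve over 0-4 h after rhamnose induction (AUC4h), with ≥20 reads per time point. It is not background-subtracted; inactive controls average about 0.047.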
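Also: Bxb1 expression induced with 0.2% (w/v) L-rhamnose at OD600 near 0.5, cultures sampled hourly, flipped fraction per protease–substrate barcode pair counted by paired-end Illumina sequencing.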

| Variant | area with substrate ENLYAQS | area with substrate ENLYCQS | area with substrate ENLYDQS | area with substrate ENLYEQS | area with substrate ENLYHQS | area with substrate ENLYKQS | area with substrate ENLYLQS | area with substrate ENLYMQS | area with substrate ENLYNQS | area with substrate ENLYQQS | area with substrate ENLYRQS | area with substrate ENLYWQS | area with substrate ENLYGQS | area with substrate ENLYPQS | area with substrate ENLYSQS | area with substrate ENLYTQS | area with substrate ENLYYQS | area with substrate ENLYIQS | area with substrate ENLYVQS |
| --- | --- | --- | --- | --- | --- | --- | --- | --- | --- | --- | --- | --- | --- | --- | --- | --- | --- | --- | --- |
| MGESLFKGPRDYNPISSSICHLTNESDGHTTSLYGIGFGPFIITNKHLFRRNNGTLVVQSLHGVFKVKDTTTLQQHLVDGRDMIIIRMPKDFPTFPQKLKFREPQREERICLVTTNFQTKSMSSMVSDTSCTFPSGDGIFWKHWIQTKDGQCGSPLVSTRDGFIVGIHSASNFTNTNNYFTSVPKNFMELLTNQEAQQWVSGWRLNADSVLWGGHKVFMVKPEEPFQPVKEATQL [P94T] | 0.0775 | 0.0853 | 0.061 | 0.0619 | 0.082 | 0.0737 | 0.0943 | 0.0991 | 0.0576 | 0.0649 | 0.0248 | 0.0884 | – | – | – | – | – | – | – |
| MGESLFKGPRDYNPISSSICHLTNESDGHTTSLYGIGFGPFIITNKHLFRRNNGTLVVQSLIGVFKVKDTTTLQQHLVDGRDMIIIRMPKDFPPFPQKLKFREPQREERICLVTTNFQTKSMSSMVSDTSCTFPSGDGIFWKHWIQTKDGQCGSPLVSTRDGFIVGIHSASNFTNTNNYFTSVPKNFMELLTNQEAQQWVSGWRLNADSVLWGGHKVFMVKPEEPFQPVKEATQL [H62I] | 0.08 | – | 0.0662 | 0.0706 | 0.0681 | – | – | 0.069 | – | – | 0.034 | – | 0.0694 | 0.0575 | 0.0453 | 0.0664 | 0.0667 | – | – |
| MGESLFKGPRDYNPISSSICHSTNESDGHTTSLYGIGFGPFIITNKHLFRRNNGTLVVQSLHGVFKVKDTTTLQQHLVDGRDMIIIRMPKDFPPFPQKLKFREPQREERICLVTTNFQTKSMSSMVSDTSCTFPSGDGIFWKHWIQTKDGQCGSPLVSTRDGFIVGIHSASNFTNTNNYFTSVPKNFMELLTNQEAQQWVSGWRLNADSVLWGGHKVFMVKPEEPFQPVKEATQL [L22S] | 0.0505 | – | 0.0386 | 0.0528 | 0.0493 | 0.0564 | 0.0417 | 0.0397 | 0.049 | 0.0743 | 0.029 | 0.0466 | 0.0416 | 0.0567 | 0.0562 | 0.044 | 0.0492 | 0.0442 | 0.0353 |
| MGESLFKGPRDYNPISSSICHLTNESDGHTTSLYGIGFGPFIITNKHLFRRNNGTLVVQSLHGVFKVKDTTTLQQHLVDGRDMIIIRMPKDFPPFPQKLKFREPQREERICLVTTNFQTKSMSSMVSDTSCTFPSGDGIFWKHWIQTKDGQCGSPLVYTRDGFIVGIHSASNFTNTNNYFTSVPKNFMELLTNQEAQQWVSGWRLNADSVLWGGHKVFMVKPEEPFQPVKEATQL [S158Y] | 0.0632 | – | 0.053 | – | 0.0518 | 0.0427 | – | 0.0429 | – | 0.052 | 0.0579 | – | 0.049 | 0.0426 | 0.0511 | – | – | 0.0456 | 0.0608 |
| MGESLFKGPRDYNPISSSICHLTNESDGHTTSLYGIGFGPFIITNKHLFRRNNGTLVVQSLHGVFKVKDTTTLQQHLVDGRDMIIIRMPKDFPPFPQKLKFREPQREERICLVTTNFQTKSMSSMVSDTSCTFPSGDGIFWKHWIQTKDGQCGSPLVSTRDGFIVGIHSASNFTNTNNYFTSVPKNFMELLTNQEDQQWVSGWRLNADSVLWGGHKVFMVKPEEPFQPVKEATQL [A196D] | 0.084 | 0.0842 | 0.066 | 0.0854 | – | 0.0573 | – | 0.0657 | 0.0613 | 0.0556 | 0.0519 | – | 0.0701 | 0.0593 | – | – | 0.0634 | 0.131 | 0.0997 |
| MGESLFKGPRDYNPISSSICHLTNESDGHTTSLYGIGFGPFIITNKHLFRRNNGTLVVQSLHGVFKVKDTTTLQQHLVDGRDMIIIRMPKDFPPFPQKLKFREPQREERICLVTTNFQTKSMSSMVSDTSCTMPSGDGIFWKHWIQTKDGQCGSPLVSTRDGFIVGIHSASNFTNTNNYFTSVPKNFMELLTNQEAQQWVSGWRLNADSVLWGGHKVFMVKPEEPFQPVKEATQL [F133M] | 0.099 | – | 0.0693 | – | 0.081 | – | – | 0.129 | 0.0562 | 0.0956 | – | 0.0926 | 0.068 | 0.0798 | 0.0765 | 0.109 | – | 0.118 | 0.166 |
| MGESLFKGPRDYNPISSSICHLTNESDGHTTSLYGIGFGPFIITNKHLFRRNNGTLVVQSLHGVFKVKDTTTLQQHLVDGRDMIIIRMPKDFPPFPQKLKFREPQREERICLVTTNFQTKSMSSMVSDTSCTFPSGDGIFWKHWIQTKDGQCGSPLVSTRDGFIVGIHSASNFTNTNNYFTSVPKNFMELLTNQEAQQWVSGWRLNADSVLWGGHKVFMVKPEEPFQPVKEAEQL [T233E] | 0.0672 | – | – | – | 0.0563 | – | 0.0933 | – | 0.0728 | – | 0.0745 | – | 0.0735 | – | 0.0625 | 0.0825 | – | – | – |
| MGESLFKGPRDYNPISSSICHLTNESDGHTTSLYGIGFGPFIITNKHLFRRNNGTLVVQSLHGVFKVKDTTTQQQHLVDGRDMIIIRMPKDFPPFPQKLKFREPQREERICLVTTNFQTKSMSSMVSDTSCTFPSGDGIFWKHWIQTKDGQCGSPLVSTRDGFIVGIHSASNFTNTNNYFTSVPKNFMELLTNQEAQQWVSGWRLNADSVLWGGHKVFMVKPEEPFQPVKEATQL [L73Q] | 0.0673 | 0.0338 | 0.0551 | 0.0533 | 0.0586 | 0.0221 | – | 0.0756 | 0.0568 | – | 0.058 | 0.0559 | 0.0636 | 0.0532 | 0.0509 | 0.0644 | – | – | – |
| MGESLFKGPRFYNPISSSICHLTNESDGHTTSLYGIGFGPFIITNKHLFRRNNGTLVVQSLHGVFKVKDTTTLQQHLVDGRDMIIIRMPKDFPPFPQKLKFREPQREERICLVTTNFQTKSMSSMVSDTSCTFPSGDGIFWKHWIQTKDGQCGSPLVSTRDGFIVGIHSASNFTNTNNYFTSVPKNFMELLTNQEAQQWVSGWRLNADSVLWGGHKVFMVKPEEPFQPVKEATQL [D11F] | 0.0599 | 0.083 | – | 0.0398 | 0.0737 | 0.0569 | – | 0.0877 | 0.0672 | 0.054 | – | 0.0746 | 0.0687 | 0.0764 | 0.071 | – | 0.0414 | – | 0.0749 |
| MGESLFKGPRDYNPISSSICHLTNESDGHTTSLYGIGFGPFIITNKHLFRRNNGTLVVQSLHGVFKVKDTTTLQQHLVDGRDMIIIRMPKDFPPFPQKLKFREPQREERICLVTTNFQTKSMSSMVSDTSCTFPSGDGIFWKHWIQTKDGQCGSPLVSTRDGFIVGIHSASNFTNTNNAFTSVPKNFMELLTNQEAQQWVSGWRLNADSVLWGGHKVFMVKPEEPFQPVKEATQL [Y179A] | 0.116 | 0.0528 | 0.0687 | 0.0575 | 0.0478 | – | 0.0625 | 0.0523 | – | – | 0.0674 | – | 0.0583 | – | 0.0641 | – | 0.0525 | 0.072 | – |
